The supplement of paper PMC11383711
The other results are listed elsewhere or left out. Binding of human antibodies (heavy:light variable regions, tested as scFv in one mRNA-display pool) to influenza hemagglutinin, with or without the stem antibody CR9114 bound first. Score = (mean enrichment − median) / interquartile range of that screen; higher = more enriched, 0 = typical non-binder. Active = above the paper's cut-off per screen: stems 28; unblocked H1 Solomon Islands 5, H1 Michigan 3, H3 5, H5 19, H7 2.85, both B 5; blocked 9, 7, H5 10, H7 10, B Phuket 10, B Lee 11.5. Scores are scaled within each screen and are no affinities; replicates correlate at about 0.6 to 0.9, and antibodies rare in the pool are noisier.

B1: AG13-3E04 (protein)
chain 1: VQLLESGGGLVQPGGSLRLSCTASGFTFNNYAMNWVRQAPGKGLEWVSSLSGGGRNIYYADSVKGRFTISRDNFKNTVYLQMNSLRAEDTAIYYCAKPAPMMVVVKNWFDTWGQGTLVTVSS
chain 2: EIVMTQSPATLSVSPGERATLSCRASQSVSANLAWYQQKPGQTPRLLIYDASTRATGIPARFSGSGSGTHFTLTISSLQSEDFAIYYCQQYKDWPPWTFGQGTKVEIK
B2: R95-1C11 (protein)
chain 1: LVQLKESGPGLLRPSETLFLTCSVSGGSIRDTSYFWGWVRQPPGKGLEWIGNVYYSGTTYYKPSLKSRVTISVDTSKNQFSLNLSSVTAADTAVYYCASLHTVAPSFWGQGTLVTVSS
chain 2: SYELTQPPSVSVSPGQTASITCSGNKLGDKFVCWFQQKPGQSPVVVIYQDTMRPSGIPERFSGSNSGNTATLTISGTQAMDEGDYYCQVWDSSTVVFGGGTKLTVL
B3: K77-1C10 (protein)
chain 1: EVQLVESGGGPVKPGGSLRLSCVGSGFTFSYFSMNWVRQAPGKGLEWVSSISSASNFIEYAESVRGRFTVSRDNAKNAVYLQMDNLRADDTAVYYCAREGPGEIVVVTCYDHWGQGTLVSVSS
chain 2: EIVMTQSPATLSVSPGERATLSCRASQSVKNNLAWYQQKPGQSPRLLIHDASARAAGVPARFSGSGSGTEFTLTISSLQSEDFAVYYCQHYNNRPPITFGPGTRVDVK
B4: antibody 1F04 (protein)
chain 1: VQLLESGGGLVQPGGSLRLSCAASGLTFSNYAMSWVRQAPGKGLEWVSVIYSSGSGTWYADSVKGRFTISRDNSKNTLYLQMISLRAEDTAVYYCAKDRIAGSWVDAFDMWGQGTMVTVSS
chain 2: DIQMTQSPSSLSASVGDRVTVTCQASQDFSNSLNWYQQKPGKAPKLLIYGASNLETGVPSRFSGSGSGTHYTFTINSLQPEDIATYYCQQFKAFGQGTKVEIK
B5: R95-2F07 (protein)
chain 1: EVQLVESGGGLVQPGRSLRLSCAASGFSFDDYAMHWVRQTPGKGLEWVSGISWNSGSIGYADSVKGRFTISRDNAKNSLYLQMNSLRAEDTALYYCTKDMNRGCDSINCYNYYYYYYGMDVWGQGTTVTVSS
chain 2: QSVLTQPPSVSGAPGQRVTISCTGSSSNIGAGYDVHWYQQLPGTAPKLLIYGNTNRPSGVPDRFSGSQSGTSASLAITGLQAEDEADYYCQSYDSSLSGSLFGGGTKLTV
B6: antibody 1F05 (protein)
chain 1: VQLVESGGGLVKPGGSLRLSCAGSGFIFRTYFMSWVRQAPGKGLEWVASINNNGLYIYYSESVEGRFTISRDNAENSVYLQMDSLRADDTALYYCSRGPWEDYDSNTYRTFDYWGQGTLVTVSS
chain 2: DIQMTQSPSTLSASLGARVTISCRASQNIAPWLAWYQQKPGEAPKLLIYKTSNLESGVPSRFSGSGSGTEFTLAISSLQPDDFATYYCQQYNSYPWTFGQGTKVEIK
B7: AG12-3D05 (protein)
chain 1: VQLVESGAEVKKPGESLRLSCQASGYNFTDSWISWVRQVPGKGLEWMGRIDPEDSYTNYSPSFQGRVTISADTSITTAYVQWRSLRPSDTAIYFCGRYSVGRKADYWGQGTLVTVSS
chain 2: DIVMTQSPLSQPVTLGQPASISCRSSQSLVYTDGNIYLNWFQQRPGQAPRRLIYKVFNRDSGVPDRFSGSGSGTDFTLKISRVEAEDVGVYYCMQGTHWPYTFGQGTKVEIK

How the values were obtained:
Assay in all cases: mRNA display binding score; higher = more enriched on the antigen
[1] = molecular target: Influenza A H1N1 A/Michigan/45/2015 hemagglutinin ectodomain
Protocol: (§1)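 A pool of natively paired antibodies, displayed as scFv on mRNA, was selected once on antigen-coated beads and sequenced before and after; two replicates.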

[2] = molecular target: Influenza A H1N1 A/Solomon Islands/3/2006 hemagglutinin ectodomain
Protocol: as §1

[3] = molecular target: Influenza A H3N2 A/Singapore/INFIMH-16-0019/2016 hemagglutinin ectodomain; conditions: antigen blocked with: nothing
Protocol: as §1

[4] = molecular target: Influenza A H5N1 A/Qinghai/1A/2005 hemagglutinin ectodomain
Protocol: as §1

[5] = molecular target: Influenza A H7N9 A/Shanghai/2/2013 hemagglutinin ectodomain
Protocol: as §1

[6] = molecular target: Influenza B/Lee/1940 hemagglutinin ectodomain
Protocol: as §1

[7] = molecular target: Influenza B/Phuket/3073/2013 hemagglutinin ectodomain
Protocol: as §1

[8] = antigen blocked with: 2 µM CR9114 IgG

| Binder | mRNA display binding score [1, 8] | mRNA display binding score ([1]; antigen blocked with: nothing) | mRNA display binding score [2, 8] | mRNA display binding score ([2]; antigen blocked with: nothing) | mRNA display binding score [3] | mRNA display binding score [4, 8] | mRNA display binding score ([4]; antigen blocked with: nothing) | mRNA display binding score [5, 8] | mRNA display binding score ([5]; antigen blocked with: nothing) | mRNA display binding score [6, 8] | mRNA display binding score ([6]; antigen blocked with: nothing) | mRNA display binding score [7, 8] | mRNA display binding score ([7]; antigen blocked with: nothing) |
| --- | --- | --- | --- | --- | --- | --- | --- | --- | --- | --- | --- | --- | --- |
| B1 | inactive: 0.0616 | inactive: 0.596 | inactive: -0.214 | inactive: 0.415 | inactive: 0.354 | inactive: -0.139 | inactive: -0.06 | inactive: 0.00618 | inactive: 1.07 | inactive: 0.508 | inactive: -0.165 | inactive: -0.0991 | inactive: 0.0989 |
| B2 | inactive: -0.129 | inactive: -0.296 | inactive: 0.304 | inactive: -0.163 | inactive: 0.0257 | inactive: -0.805 | inactive: 1.65 | inactive: 0.0064 | inactive: -0.266 | inactive: 1 | active: 9.42 | inactive: -0.0234 | active: 5.2 |
| B3 | inactive: 2.88 | – | inactive: 1.96 | – | – | inactive: 0.53 | – | inactive: 0.523 | – | inactive: 0.304 | – | inactive: 2 | – |
| B4 | inactive: 1.77 | inactive: -0.0849 | active: 133 | active: 111 | inactive: -0.27 | inactive: 0.585 | inactive: 0.297 | inactive: 0.441 | inactive: -0.173 | inactive: -0.416 | inactive: -0.0415 | inactive: 1.03 | inactive: 0.62 |
| B5 | inactive: 0.936 | inactive: -0.588 | inactive: -0.0921 | inactive: -0.164 | inactive: -0.154 | inactive: -0.472 | inactive: 0.299 | inactive: -0.535 | inactive: -0.672 | active: 21.1 | active: 71.1 | inactive: 0.288 | inactive: -0.367 |
| B6 | inactive: 6.1 | inactive: 0.79 | inactive: 8.79 | inactive: 1.83 | inactive: -0.119 | inactive: 6.35 | inactive: 4.28 | inactive: 4.46 | inactive: 2.17 | active: 21.4 | active: 51.7 | active: 65.9 | active: 23.7 |
| B7 | inactive: -0.149 | inactive: 0.987 | inactive: 0.177 | inactive: 0.841 | inactive: 0.938 | inactive: 0.385 | inactive: 0.213 | inactive: -0.0357 | inactive: 0.915 | inactive: 1.74 | inactive: 0.105 | inactive: 0.228 | inactive: -0.164 |
